Data taken from PubChem BioAssay AID2101 (National Center for Advancing Translational Sciences (NCATS), 2009).
Among all 330,000 compounds or so, about 300 (0.091%) were called active. Inconclusive means that the source gave no clear call. Such entries were picked first, then a sample of the others. Calls come from the whole dose curve; as a rule, active = well fitted inhibition curve with a large enough effect; inconclusive = small, poorly fitted or top-dose-only effect, or effect the other way, or another doubt; inactive = no such curve, though single readings can be large or run the other way. No potency is given beside an inconclusive call; the fits are too rough.

Biological target: Lysosomal acid glucosylceramidase (Homo sapiens) (UniProt P04062)
Assay: qHTS Assay for Inhibitors and Activators of N370S glucocerebrosidase as a Potential Chaperone Treatment of Gaucher Disease;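 for activity change, negative = inhibition: 0% = full enzyme activity and -100% = no enzyme basal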
Conditions: N370S GC spleen homogenate, 4MU-glucoside fluorescence; activity change, negative = inhibition: at 59.4 µM (top of the series) unless noted
Potency is the fitted concentration of half-maximal effect.

Compound | Potency | activity change, negative = inhibition
CC(=O)N1CCN(c2ccc(NCc3cccs3)cc2)CC1 | inconclusive [inhibitor, partial curve, poor fit] | –
CCCCn1c(-c2cccc(Br)c2)nc2cc3[nH]c(=O)c(C(C)C)nc3cc21 | inconclusive [activator, single point] | –
Cc1ccc2cc(C#N)c(SCC(=O)N3CCCC3)nc2c1 | inconclusive [activator, partial curve] | –
COc1ccc2[nH]cc(C(=O)CNc3nc(C)cs3)c2c1 | inconclusive [inhibitor, single point] | –
CCC(=O)N1c2ccc(S(=O)(=O)N(CCO)Cc3ccccc3)cc2CC1C (stereo unspecified) | inconclusive [inhibitor, partial curve] | –
Cn1c(=O)[nH]c(=O)c2c1nc(N1CCN(Cc3ccccc3)CC1)n2CCCc1ccccc1 | inconclusive [inhibitor, single point] | –
CCOC(=O)CSc1ncc(-c2ccccc2)nn1 | inconclusive [activator, single point] | –
O=C1c2cccc3c(O)ccc(c23)C(=O)N1Cc1ccccc1 | inconclusive [activator, partial curve] | –
CCCC[n+]1ccn(-c2nc3ccccc3nc2[N-]S(=O)(=O)c2ccc(C)cc2)c1 | inconclusive [activator, single point] | –
Cc1ccc(N=Cc2cc(Cc3ccccc3Cl)cc([N+](=O)[O-])c2O)c(O)c1 | inconclusive [activator, partial curve] | –
Cc1[nH]c2ccccc2c1C(=O)CNc1nccs1 | – | inconclusive: 23.5% [activator]
CN1CCN(Cc2cc(=O)oc3ccc(Cl)cc23)CC1 | inactive | –
O=C(Nc1ccccc1)N1CCN2C(=O)c3ccccc3C12c1ccccc1 (stereo unspecified) | inconclusive [activator, partial curve] | –
CCc1nc(Nc2ccncc2)c2oc3ccccc3c2n1 | inactive | –
CCc1ccc(CNc2ccc3c(c2)ncn3C)cc1 | inactive | –
FC(F)(F)c1cnc2c(c1)Nc1ccccc1S2 | inconclusive [activator, partial curve] | –
COc1ccc(Cn2nnnc2C(C(C)C)N(Cc2ccco2)Cc2cccs2)cc1 (stereo unspecified) | inconclusive [activator, partial curve, poor fit] | –
CC(CCc1ccccc1)NC(=O)/C=C/c1ccccc1 (stereo unspecified) | inconclusive [activator, partial curve, poor fit] | –
CN(CCc1ccccn1)C(=O)CCc1nnc(CCCc2ccccc2)o1 | inactive | –
O=C(Nc1ccc2nc(C3CC3)n(Cc3ccc(F)cc3)c(=O)c2c1)c1ccco1 | inconclusive [activator, partial curve] | –
CN1CCc2c(sc(NC(=O)c3cc(Cl)sc3Cl)c2C(N)=O)C1 | inconclusive [inhibitor, full curve, poor fit] | –
CCOC(=O)c1c(C)oc2c1c(C(c1cccnc1)N1CCN(C)CC1)c(O)c1ccccc12 (stereo unspecified) | inactive | –

Compound | Potency | activity change, negative = inhibition
CC1CCN(C(=O)/C(=C/c2ccccc2Cl)c2ccccc2)CC1 | inconclusive [activator, partial curve] | –
Cc1cc(C)c2nc(N(CCCN(C)C)C(=O)c3ccc(S(=O)(=O)N4CC(C)OC(C)C4)cc3)sc2c1 (stereo unspecified) | inconclusive [inhibitor, single point] | –
C=CCn1c(SCC(=O)N2CCc3ccccc3C2)nc2sc(C)c(C)c2c1=O | inconclusive [activator, partial curve] | –
C#CCOCCOCCOCCNc1nc(N2CCN(C(=O)CCCCCCCCCCNC(=O)[C@H](CCCCN)n3cc(C[C@@H](C)CC)nn3)CC2)nc(N2CCN(C(=O)CCCCCCCCCCNC(=O)[C@H](CCCN=C(N)N)n3cc(C[C@@H](C)CC)nn3)CC2)n1 | active: 6.31 µM | –
Cc1cccc(-c2nnc3sc(-c4ccccc4C)nn23)c1 | inconclusive [activator, partial curve] | –
CCc1ccc2nc(N(CCCN(C)C)C(=O)c3ccc(S(=O)(=O)N(C)C4CCCCC4)cc3)sc2c1 | inconclusive [inhibitor, partial curve] | –
CCC(C)(C)NC(=O)C(c1ccc(C)cc1)N(CCN1CCOCC1)C(=O)CNC(=O)c1cccs1 (stereo unspecified) | inconclusive [inhibitor, single point] | –
N#Cc1nc(-c2ccccc2F)oc1NCCN1CCOCC1 | inactive | –
Cc1nc(NC(=O)c2cccc(Cl)c2)sc1C(=O)N1CCCCC1 | inconclusive [activator, single point] | –
CN(C)c1ncc2nc(CCc3ccccc3)c(=O)n(Cc3cccs3)c2n1 | inconclusive [activator, single point] | –
COc1c(O)cc2c(c1O)C(=O)CC(c1ccccc1)O2 (stereo unspecified) | inactive | –
COc1cccc2sc(N(CCCN(C)C)C(=O)C(c3ccccc3)c3ccccc3)nc12 | inconclusive [inhibitor, single point] | –
Cc1c(CC(=O)NC(C)C)c(=O)oc2cc3c(cc12)CCC(C)(C)O3 | inconclusive [activator, single point] | –
Cc1snc2sc(C(=O)c3ccc(Br)cc3)c(N)c12 | inconclusive [activator, single point] | –
O=c1c2ccccc2c(-c2ccccc2)nn1Cc1c(Cl)cccc1Cl | inconclusive [activator, partial curve] | –
Cc1ccc2c(c1)c(CC(=O)Nc1ccc(C)c(F)c1)c(C(=O)O)n2C | inconclusive [activator, full curve, poor fit] | –
Cc1ccsc1/C=N/n1cnc2sc(C)c(C)c2c1=O | inactive | –
Cc1ccc(-c2csc(NC(=O)CCNC(=O)c3ccccc3Cl)n2)cc1 | inconclusive [inhibitor, partial curve] | –
Cc1cc(N2CCOCC2)nc2ccc(NC(=O)CCC(=O)N3CCCCC3)cc12 | inconclusive [activator, single point] | –
COc1cc(NC(=O)COC(=O)CCCC2=NS(=O)(=O)c3ccccc3N2)cc(OC)c1 | inconclusive [inhibitor, partial curve, poor fit] | –
O=C(COc1ccccc1Cl)Nc1ccc(N2CCCC2)cc1 | inconclusive [activator, full curve] | –
CNC(=O)c1cc2c(s1)-c1ccccc1CC2 | inconclusive [activator, single point] | –

Compound | Potency | activity change, negative = inhibition
CC1=C(C(N)=O)N2C(=O)[C@@H](NC(=O)Cc3ccccc3)C2SC1 (stereo partly specified) | inconclusive [inhibitor, single point] | –
Cc1ccc(OCC(=O)Nc2ccc3c(c2)CCC3)c([N+](=O)[O-])n1 | inconclusive [activator, partial curve, poor fit] | –
O=C(Nc1ccc(S(=O)(=O)N2CCOCC2)cc1)c1ccccc1 | inconclusive [inhibitor, full curve, poor fit] | –
COC(=O)c1c(NC(=O)c2ccccc2)sc2c1CC(C)(C)OC2 | inconclusive [activator, single point] | –
Cc1ccnc(NC(=O)c2ccc(Cl)c(S(=O)(=O)N3CCCC3)c2)c1 | inactive | –
CCn1cnc2cc(NCc3cccc(OC)c3O)ccc21 | inactive | –
CCc1cc2c(NC(Cc3ccccc3)C(=O)O)nc(C)nc2s1 (stereo unspecified) | inactive | –
Cc1c(-n2c(SCC(=O)N(C)C3CCS(=O)(=O)C3)nc3ccccc3c2=O)c(=O)n(-c2ccccc2)n1C (stereo unspecified) | – | inconclusive: 28.9% [activator]
O=C(O)CC/C(=C\c1cccc(NC(=O)c2ccccc2Cl)c1)c1nc2ccccc2s1 | inconclusive [activator, partial curve] | –
CCc1ccc2nc3n[nH]c(N)c3cc2c1 | inactive | –
COC(=O)c1sc(C(C)(C)C)cc1CS(=O)(=O)c1ccccn1 | inconclusive [activator, partial curve] | –
Cc1ccc(NC(=O)CSc2ccc(-c3ccco3)nn2)c(C)c1 | inconclusive [activator, partial curve] | –
CCOC(=O)c1sc(NNC(=O)c2ccc(C)cc2)nc1C | inactive | –
Clc1ccccc1N/N=C/c1ccc2c(c1)OCO2 | inactive | –
O=C(Nc1cccc(F)c1)Nc1ccccn1 | inconclusive [activator, partial curve] | –
CCCNC(=O)[C@H]1O[C@@H]1C(=O)N[C@H](C(=O)N1CCC[C@H]1C(=O)OC)[C@@H](C)CC | inactive | –
COc1cccc(N2CCN(c3ncnc4c3[nH]c3ccccc34)CC2C)c1 (stereo unspecified) | inactive | –
CCOCCOC(=O)COc1ccc2c(-c3ccccc3)cc(=O)oc2c1 | inconclusive [inhibitor, full curve, poor fit] | –
COc1ccc(-c2nnc3n2N=C(c2ccccc2OC)CS3)c(OC)c1 | inactive | –
CCN(CC)c1ccc(/C=N/NC(=O)c2c[nH]c3ccccc23)cc1 | inconclusive [inhibitor, full curve, poor fit] | –
COc1ccccc1N1C(=O)C2C(C(=O)c3ccccc3)=NN(c3ccccc3OC)C2C1=O (stereo unspecified) | inconclusive [activator, full curve] | –
O=C(COC(=O)c1cccc(S(=O)(=O)N2CCOCC2)c1)Nc1ncc(C(F)(F)F)cc1Cl | inconclusive [inhibitor, full curve] | –
